Among the data in publication PMC9911399, “Two distinct binding modes provide the RNA-binding protein RbFox with extraordinary sequence specificity” are binding signal values, retold here.

Changes are numbered by the printed parent chain; changes in the protein carry UniProt numbers. The list shows a part of the results.

Sequences and labels used below:
T1: RBFOX1 RRM (Homo sapiens, UniProt Q9NWB1 109-208)
T1 sequence: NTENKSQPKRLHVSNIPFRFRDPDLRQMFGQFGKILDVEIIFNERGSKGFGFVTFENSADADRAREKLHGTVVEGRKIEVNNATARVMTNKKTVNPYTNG

B1: GCCCGGU (DNA:RNA)
RNA: GGGAGACCGGAAUUCAGAUUGUCCGCCCGGUUUAAAUCCCGUCGUAGCCACCA
DNA 1: CAATCTGAATTCCGGTCTCCC
DNA 2: TGGTGGCTACGACGGGATT
B2: GUUGUCG (DNA:RNA)
RNA: B1 RNA with C26U, C27U, C28G, G29U, G30C, U31G
DNA 1: CAATCTGAATTCCGGTCTCCC
DNA 2: TGGTGGCTACGACGGGATT
B3: GUUAUUC (DNA:RNA)
RNA: B1 RNA with C26U, C27U, C28A, G29U, G30U, U31C
DNA 1: CAATCTGAATTCCGGTCTCCC
DNA 2: TGGTGGCTACGACGGGATT
B4: GGUUUCG (DNA:RNA)
RNA: B1 RNA with C26G, C27U, C28U, G29U, G30C, U31G
DNA 1: CAATCTGAATTCCGGTCTCCC
DNA 2: TGGTGGCTACGACGGGATT
B5: AAGUGCU (DNA:RNA)
RNA: B1 RNA with G25A, C26A, C27G, C28U, G30C
DNA 1: CAATCTGAATTCCGGTCTCCC
DNA 2: TGGTGGCTACGACGGGATT
B6: GCGGCUC (DNA:RNA)
RNA: B1 RNA with C27G, C28G, G29C, G30U, U31C
DNA 1: CAATCTGAATTCCGGTCTCCC
DNA 2: TGGTGGCTACGACGGGATT
B7: UGCGAUC (DNA:RNA)
RNA: B1 RNA with G25U, C26G, C28G, G29A, G30U, U31C
DNA 1: CAATCTGAATTCCGGTCTCCC
DNA 2: TGGTGGCTACGACGGGATT
B8: CACGUCU (DNA:RNA)
RNA: B1 RNA with G25C, C26A, C28G, G29U, G30C
DNA 1: CAATCTGAATTCCGGTCTCCC
DNA 2: TGGTGGCTACGACGGGATT
B9: CACCCUC (DNA:RNA)
RNA: B1 RNA with G25C, C26A, G29C, G30U, U31C
DNA 1: CAATCTGAATTCCGGTCTCCC
DNA 2: TGGTGGCTACGACGGGATT
B10: UUAGUCA (DNA:RNA)
RNA: GGGAGACCGGAAUUCAGAUUGUCCUUAGUCAUUAAAUCCCGUCGUAGCCACCA
DNA 1: CAATCTGAATTCCGGTCTCCC
DNA 2: TGGTGGCTACGACGGGATT
B11: ACAUGUU (DNA:RNA)
RNA: B1 RNA with G25A, C27A, C28U, G30U
DNA 1: CAATCTGAATTCCGGTCTCCC
DNA 2: TGGTGGCTACGACGGGATT
B12: AACCGGA (DNA:RNA)
RNA: B1 RNA with G25A, C26A, U31A
DNA 1: CAATCTGAATTCCGGTCTCCC
DNA 2: TGGTGGCTACGACGGGATT
B13: AGUGGAU (DNA:RNA)
RNA: B1 RNA with G25A, C26G, C27U, C28G, G30A
DNA 1: CAATCTGAATTCCGGTCTCCC
DNA 2: TGGTGGCTACGACGGGATT
B14: UAAACAC (DNA:RNA)
RNA: B10 RNA with U26A, G28A, U29C, C30A, A31C
DNA 1: CAATCTGAATTCCGGTCTCCC
DNA 2: TGGTGGCTACGACGGGATT
B15: GGCUGAU (DNA:RNA)
RNA: B1 RNA with C26G, C28U, G30A
DNA 1: CAATCTGAATTCCGGTCTCCC
DNA 2: TGGTGGCTACGACGGGATT
B16: AGGUAGU (DNA:RNA)
RNA: B1 RNA with G25A, C26G, C27G, C28U, G29A
DNA 1: CAATCTGAATTCCGGTCTCCC
DNA 2: TGGTGGCTACGACGGGATT
B17: CGGUUUU (DNA:RNA)
RNA: B1 RNA with G25C, C26G, C27G, C28U, G29U, G30U
DNA 1: CAATCTGAATTCCGGTCTCCC
DNA 2: TGGTGGCTACGACGGGATT
B18: AAACGCA (DNA:RNA)
RNA: B10 RNA with U25A, U26A, G28C, U29G
DNA 1: CAATCTGAATTCCGGTCTCCC
DNA 2: TGGTGGCTACGACGGGATT
B19: GAUCGAC (DNA:RNA)
RNA: B1 RNA with C26A, C27U, G30A, U31C
DNA 1: CAATCTGAATTCCGGTCTCCC
DNA 2: TGGTGGCTACGACGGGATT
B20: AUCAGUG (DNA:RNA)
RNA: B1 RNA with G25A, C26U, C28A, G30U, U31G
DNA 1: CAATCTGAATTCCGGTCTCCC
DNA 2: TGGTGGCTACGACGGGATT

This assay addresses T1, RBFOX1 RRM. The assay is described as follows: EMSA; HiTS-Eq, 1 nM pool, 10 min; buffer printed only for the single-RNA assays: 10 mM Tris pH 7.5, 150 mM NaCl, 3.4 mM EDTA, 0.001% NP-40, 30 C. Conditions: tags: His6 N-terminal (pET28a); label: 5' 32P. Put shortly:
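Relative association constants, normalised to the cognate motif, were derived by comparing read counts of each RNA species with those of the control reaction. The RNA sequenced was the free fraction, separated by 8% native PAGE after a 10 min equilibration in 50 µL of 1 nM 5′-radiolabelled RNA (7 randomized nucleotides) with increasing concentrations of purified wild-type or mutant RbFox RRM.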
(In general: A gel shift assay detects complexes by their altered migration in electrophoresis.)
With B1, the binding signal is 0.0179 KA relative to UGCAUGU.

B2: the binding signal is 0.0223 KA relative to UGCAUGU.

Regarding B3, the binding signal is 0.0122 KA relative to UGCAUGU.

For B4, the binding signal was 0.0173 KA relative to UGCAUGU.

On to B5, for which the binding signal was 0.0139 KA relative to UGCAUGU.

For the molecule B6, the binding signal is 0.0224 KA relative to UGCAUGU.

Take B7: the binding signal was 0.0166 KA relative to UGCAUGU.

Consider B8, for which the binding signal is 0.00642 KA relative to UGCAUGU.

For the molecule B9, the binding signal was 0.00232 KA relative to UGCAUGU.

As for B10, the binding signal is 0.00946 KA relative to UGCAUGU.

As to B11, the binding signal was 0.00357 KA relative to UGCAUGU.

B12: the binding signal was 0.00248 KA relative to UGCAUGU.

As for B13, the binding signal is 0.00554 KA relative to UGCAUGU.

With B14, the binding signal was 0.000762 KA relative to UGCAUGU.

In the case of B15, the binding signal is 0.0209 KA relative to UGCAUGU.

On to B16, for which the binding signal is 0.0106 KA relative to UGCAUGU.

Consider B17, for which the binding signal was 0.0157 KA relative to UGCAUGU.

Regarding B18, the binding signal is 0.00682 KA relative to UGCAUGU.

As to B19, the binding signal is 0.0165 KA relative to UGCAUGU.

B20: the binding signal is 0.00865 KA relative to UGCAUGU.
